Source: PMC12820563
Some of the results follow. The list includes weakly bound sequences.

Target: T1, MBP-FoxP3dN (UniProt Q99JB6)
T1 sequence: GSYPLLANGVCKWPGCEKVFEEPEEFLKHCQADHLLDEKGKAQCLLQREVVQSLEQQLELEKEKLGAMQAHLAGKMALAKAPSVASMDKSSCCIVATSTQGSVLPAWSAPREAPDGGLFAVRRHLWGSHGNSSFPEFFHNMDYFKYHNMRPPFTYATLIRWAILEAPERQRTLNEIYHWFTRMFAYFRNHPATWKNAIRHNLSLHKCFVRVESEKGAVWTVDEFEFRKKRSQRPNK
Test: PD-seq (MBP pull-down with sequencing)
Conditions: 20 mM Tris-HCl pH 7.5, 100 mM NaCl, 1.5 mM MgCl2, 0.4 uM protein, 0.1 uM dsDNA library, 30 min, room temperature, amylose pull-down; high values mean tight binding; double strand, one strand shown

| Sequence | binding signal (RPM ratio (pull-down/input)) |
| --- | --- |
| GATGATTGTTCTCCCAGCTGATGAATTACATGATTCGAGTAAACAAATTTTCCTAATCTTTCTGTTCAAGCGCCATCTAC | 0.659 |
| GATGATTGTTCTCCCAGCTGATGAATTGCTGACGTCGAGTAAACAAATTTTCCTAATCTTTCTGTTCAAGCGCCATCTAC | 0.742 |
| GATGATTGTTCTCCCAGCTGATGAATTACGCGTTTCGAGTAAACAAATTTTCCTAATCTTTCTGTTCAAGCGCCATCTAC | 3.62 |
| GATGATTGTTCTCCCAGCTGATGAATTGACTTCGTCGAGTAAACAAATTTTCCTAATCTTTCTGTTCAAGCGCCATCTAC | 0.329 |
| GATGATTGTTCTCCCAGCTGATGAATTTCCACACTCGAGTAAACAAATTTTCCTAATCTTTCTGTTCAAGCGCCATCTAC | 0.354 |
| GATGATTGTTCTCCCAGCTGATGAATTAACGGCCTCGAGTAAACAAATTTTCCTAATCTTTCTGTTCAAGCGCCATCTAC | 0.443 |
| GATGATTGTTCTCCCAGCTGATGAATTCTGTCCCTCGAGTAAACAAATTTTCCTAATCTTTCTGTTCAAGCGCCATCTAC | 1.51 |
| GATGATTGTTCTCCCAGCTGATGAATTATCGCTGTCGAGTAAACAAATTTTCCTAATCTTTCTGTTCAAGCGCCATCTAC | 0.423 |
| GATGATTGTTCTCCCAGCTGATGAATTTTAGGTCTCGAGTAAACAAATTTTCCTAATCTTTCTGTTCAAGCGCCATCTAC | 0.401 |
| GATGATTGTTCTCCCAGCTGATGAATTTCCTCGATCGAGTAAACAAATTTTCCTAATCTTTCTGTTCAAGCGCCATCTAC | 0.209 |
| GATGATTGTTCTCCCAGCTGATGAATTGTACATATCGAGTAAACAAATTTTCCTAATCTTTCTGTTCAAGCGCCATCTAC | 0.885 |
| GATGATTGTTCTCCCAGCTGATGAATTTCGGTCGTCGAGTAAACAAATTTTCCTAATCTTTCTGTTCAAGCGCCATCTAC | 0.498 |
| GATGATTGTTCTCCCAGCTGATGAATTAAACGGTTCGAGTAAACAAATTTTCCTAATCTTTCTGTTCAAGCGCCATCTAC | 0.323 |
| GATGATTGTTCTCCCAGCTGATGAATTGACCGAGTCGAGTAAACAAATTTTCCTAATCTTTCTGTTCAAGCGCCATCTAC | 0.178 |
| GATGATTGTTCTCCCAGCTGATGAATTGCGGACGTCGAGTAAACAAATTTTCCTAATCTTTCTGTTCAAGCGCCATCTAC | 0.537 |
| GATGATTGTTCTCCCAGCTGATGAATTCTTTGGATCGAGTAAACAAATTTTCCTAATCTTTCTGTTCAAGCGCCATCTAC | 0.196 |

| Sequence | binding signal (RPM ratio (pull-down/input)) |
| --- | --- |
| GATGATTGTTCTCCCAGCTGATGAATTGAGGCCCTCGAGTAAACAAATTTTCCTAATCTTTCTGTTCAAGCGCCATCTAC | 0.84 |
| GATGATTGTTCTCCCAGCTGATGAATTTCCCGGATCGAGTAAACAAATTTTCCTAATCTTTCTGTTCAAGCGCCATCTAC | 0.158 |
| GATGATTGTTCTCCCAGCTGATGAATTACACAACTCGAGTAAACAAATTTTCCTAATCTTTCTGTTCAAGCGCCATCTAC | 0.854 |
| GATGATTGTTCTCCCAGCTGATGAATTGTGGGTGTCGAGTAAACAAATTTTCCTAATCTTTCTGTTCAAGCGCCATCTAC | 1.27 |
| GATGATTGTTCTCCCAGCTGATGAATTTCAGTATTCGAGTAAACAAATTTTCCTAATCTTTCTGTTCAAGCGCCATCTAC | 0.896 |
| GATGATTGTTCTCCCAGCTGATGAATTAACTTCCTCGAGTAAACAAATTTTCCTAATCTTTCTGTTCAAGCGCCATCTAC | 0.246 |
| GATGATTGTTCTCCCAGCTGATGAATTCCGTCTGTCGAGTAAACAAATTTTCCTAATCTTTCTGTTCAAGCGCCATCTAC | 0.686 |
| GATGATTGTTCTCCCAGCTGATGAATTTCGCTTATCGAGTAAACAAATTTTCCTAATCTTTCTGTTCAAGCGCCATCTAC | 1.8 |
| GATGATTGTTCTCCCAGCTGATGAATTCCGCACTTCGAGTAAACAAATTTTCCTAATCTTTCTGTTCAAGCGCCATCTAC | 1.22 |
| GATGATTGTTCTCCCAGCTGATGAATTAGTGTACTCGAGTAAACAAATTTTCCTAATCTTTCTGTTCAAGCGCCATCTAC | 4.59 |
| GATGATTGTTCTCCCAGCTGATGAATTTTTGTATTCGAGTAAACAAATTTTCCTAATCTTTCTGTTCAAGCGCCATCTAC | 2.57 |
| GATGATTGTTCTCCCAGCTGATGAATTTCCAGCGTCGAGTAAACAAATTTTCCTAATCTTTCTGTTCAAGCGCCATCTAC | 0.389 |
| GATGATTGTTCTCCCAGCTGATGAATTAGGTAGATCGAGTAAACAAATTTTCCTAATCTTTCTGTTCAAGCGCCATCTAC | 0.385 |
| GATGATTGTTCTCCCAGCTGATGAATTGCACCCATCGAGTAAACAAATTTTCCTAATCTTTCTGTTCAAGCGCCATCTAC | 0.908 |
| GATGATTGTTCTCCCAGCTGATGAATTCATCGAGTCGAGTAAACAAATTTTCCTAATCTTTCTGTTCAAGCGCCATCTAC | 0.268 |
